Over roughly 2,900 compounds, “NF-kB SEAP reporter activity, fold change vs agonist alone” has its median near 0.99; the highest 2% begin near 2.6. The list shows a part of the results.
Legend:
RAW-Dual [1] = assay: NF-kB SEAP reporter activity, fold change vs agonist alone; cytotoxicity flag (confluency mask): not cytotoxic; higher = enhanced NF-kB activity
Summary of the method: (§1)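 Reporter activity is given as fold change relative to agonist-alone wells. To measure it, 50 nL of library stock was pin-tooled onto RAW-Dual macrophages (50,000 cells/well, DMEM, 384-well plates), a PRR agonist followed 1 h later, and cells stayed at 37 °C, 5% CO2. Twenty hours on, supernatant was assayed for IRF (QuantiLuc luminescence) and NF-κB (QuantiBlue, 620 nm absorbance), and wells under 70% of agonist-control IncuCyte confluency in both mask sets were marked cytotoxic.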

RAW-Dual [2] = assay: NF-kB SEAP reporter activity, fold change vs agonist alone; higher = enhanced NF-kB activity; conditions: cytotoxicity flag (confluency mask): not cytotoxic
Summary of the method: as §1

[3] = agonist: ODN 1826 (TLR9) 0.5 ug/mL
[4] = agonist: Pam2CSK4 (TLR2/6) 0.1 ug/mL
[5] = agonist: Pam3CSK4 (TLR2/1) 0.1 ug/mL
[6] = library stock concentration (final ~1000-fold dilution): 10 mM, agonist: Imiquimod (TLR7) […]
[7] = library stock concentration (final ~1000-fold dilution): 10 mM, agonist: MPLA (TLR4) […]
[8] = library stock concentration (final ~1000-fold dilution): 2 mM, agonist: MPLA (TLR4) […]

NC(=O)c1cn(Cc2c(F)cccc2F)nn1 (library stock concentration (final ~1000-fold dilution): 10 mM)
NF-kB SEAP reporter activity (RAW-Dual [1]; agonist: LPS (TLR4) 0.1 ug/mL): 0.996
NF-kB SEAP reporter activity (RAW-Dual [1]; [3]): 0.972
NF-kB SEAP reporter activity (RAW-Dual [1]; [4]): 0.98
NF-kB SEAP reporter activity (RAW-Dual [1]; [5]): 0.987

NC(=O)c1cn(Cc2c(F)cccc2F)nn1
NF-kB SEAP reporter activity (RAW-Dual [2]; [6]): 0.877
NF-kB SEAP reporter activity (RAW-Dual [2]; [7]): 1.05

COc1cc2c(N3CCN(C(=O)Nc4ccc(OC(C)C)cc4)CC3)ncnc2cc1OCCCN1CCCCC1 (library stock concentration (final ~1000-fold dilution): 2 mM)
NF-kB SEAP reporter activity (RAW-Dual [1]; agonist: LPS (TLR4) 0.1 ug/mL): 1.09
NF-kB SEAP reporter activity (RAW-Dual [1]; [3]): 0.221
NF-kB SEAP reporter activity (RAW-Dual [1]; [4]): 1.08
NF-kB SEAP reporter activity (RAW-Dual [1]; [5]): 1.2

COc1cc2c(N3CCN(C(=O)Nc4ccc(OC(C)C)cc4)CC3)ncnc2cc1OCCCN1CCCCC1
NF-kB SEAP reporter activity (RAW-Dual [2]; library stock concentration (final ~1000-fold dilution): 2 mM, agonist: Imiquimod (TLR7) […]): 0.836
NF-kB SEAP reporter activity (RAW-Dual [2]; [8]): 0.958

C=C1CCC2C(C)(CO)C(O)CCC2(C)C1C/C=C1\C=COC1=O (stereo not given)
NF-kB SEAP reporter activity (RAW-Dual [2]; [6]): 0.803
NF-kB SEAP reporter activity (RAW-Dual [2]; [7]): 0.925

C=C1CCC2C(C)(CO)C(O)CCC2(C)C1C/C=C1\C=COC1=O (stereo not given) (library stock concentration (final ~1000-fold dilution): 10 mM)
NF-kB SEAP reporter activity (RAW-Dual [1]; agonist: LPS (TLR4) 0.1 ug/mL): 0.786
NF-kB SEAP reporter activity (RAW-Dual [1]; [3]): 0.801
NF-kB SEAP reporter activity (RAW-Dual [1]; [4]): 0.692
NF-kB SEAP reporter activity (RAW-Dual [1]; [5]): 0.833

COc1ccc(C2(C#N)CCC(C(=O)O)CC2)cc1OC1CCCC1 (stereo not given) (library stock concentration (final ~1000-fold dilution): 10 mM)
NF-kB SEAP reporter activity (RAW-Dual [1]; agonist: LPS (TLR4) 0.1 ug/mL): 1.97
NF-kB SEAP reporter activity (RAW-Dual [1]; [3]): 1.95
NF-kB SEAP reporter activity (RAW-Dual [1]; [4]): 1.3
NF-kB SEAP reporter activity (RAW-Dual [1]; [5]): 1.47

COc1ccc(C2(C#N)CCC(C(=O)O)CC2)cc1OC1CCCC1 (stereo not given)
NF-kB SEAP reporter activity (RAW-Dual [2]; [6]): 1.38
NF-kB SEAP reporter activity (RAW-Dual [2]; [7]): 1.11

NC(=O)c1ncn(C2OC(CO)C(O)C2O)c1O (stereo not given)
NF-kB SEAP reporter activity (RAW-Dual [2]; library stock concentration (final ~1000-fold dilution): 10 mM water, agonist: Imiquimod (TLR7) […]): 0.991
NF-kB SEAP reporter activity (RAW-Dual [2]; library stock concentration (final ~1000-fold dilution): 10 mM water, agonist: MPLA (TLR4) […]): 0.913

NC(=O)c1ncn(C2OC(CO)C(O)C2O)c1O (stereo not given) (library stock concentration (final ~1000-fold dilution): 10 mM water)
NF-kB SEAP reporter activity (RAW-Dual [1]; agonist: LPS (TLR4) 0.1 ug/mL): 0.614
NF-kB SEAP reporter activity (RAW-Dual [1]; [3]): 0.706
NF-kB SEAP reporter activity (RAW-Dual [1]; [4]): 0.27
NF-kB SEAP reporter activity (RAW-Dual [1]; [5]): 0.466

O=c1ccc2cc(O)c(O)cc2o1
NF-kB SEAP reporter activity (RAW-Dual [2]; [7]): 1.05

O=c1ccc2cc(O)c(O)cc2o1 (library stock concentration (final ~1000-fold dilution): 10 mM)
NF-kB SEAP reporter activity (RAW-Dual [1]; agonist: LPS (TLR4) 0.1 ug/mL): 1.03
NF-kB SEAP reporter activity (RAW-Dual [1]; [3]): 0.695
NF-kB SEAP reporter activity (RAW-Dual [1]; [4]): 1
NF-kB SEAP reporter activity (RAW-Dual [1]; [5]): 0.711

OB1OCc2cc(F)ccc21 (library stock concentration (final ~1000-fold dilution): 10 mM)
NF-kB SEAP reporter activity (RAW-Dual [1]; agonist: LPS (TLR4) 0.1 ug/mL): 1.02
NF-kB SEAP reporter activity (RAW-Dual [1]; [3]): 0.839
NF-kB SEAP reporter activity (RAW-Dual [1]; [4]): 0.808
NF-kB SEAP reporter activity (RAW-Dual [1]; [5]): 0.696

OB1OCc2cc(F)ccc21
NF-kB SEAP reporter activity (RAW-Dual [2]; [7]): 0.997

CN1CCc2c(c3ccccc3n2Cc2ccccc2)C1.CN1CCc2c(c3ccccc3n2Cc2ccccc2)C1.O=S(=O)(O)c1cccc2c(S(=O)(=O)O)cccc12 (library stock concentration (final ~1000-fold dilution): 2 mM)
NF-kB SEAP reporter activity (RAW-Dual [1]; agonist: LPS (TLR4) 0.1 ug/mL): 1.29
NF-kB SEAP reporter activity (RAW-Dual [1]; [3]): 0.722
NF-kB SEAP reporter activity (RAW-Dual [1]; [4]): 0.952
NF-kB SEAP reporter activity (RAW-Dual [1]; [5]): 0.958

CN1CCc2c(c3ccccc3n2Cc2ccccc2)C1.CN1CCc2c(c3ccccc3n2Cc2ccccc2)C1.O=S(=O)(O)c1cccc2c(S(=O)(=O)O)cccc12
NF-kB SEAP reporter activity (RAW-Dual [2]; [8]): 1.15

Source: the supplement of paper PMC10037445
